Test results taken from the supplement of paper PMC12632987.
In all, about 2,300 sequences were measured (“median log2 fold change of GCK-ALFA target abundance (FLAG IP / Myc IP barcode read proportion)”: median about 0.095, lowest 2% from about -0.47 on). The list shows a part of the results.

B1: LC3A_free_39_2223 (protein)
chain: SEEEIEKLIKEVAKESGIDYEELKKKIEEIKEVGKLSNEQILEIVKAILEAVKAGADAKEILEEALKLTKELVAAGKSPEEIKEEILELIEDYRNLVPLD
B2: LC3A_3_1612 (protein)
chain: MEELIEEQLKKLKEAGFSEEVIEKAREVMEALAEKGFEEAIKTLTEELLKLKDVDPELIIETLDEILRKVTEEDLSEEEVIEFIKEEFRVTELESEIIEL
B3: LC3A_28_828 (protein)
chain: SNIEERIKKFKEEAAKAKAAGESATLTVTITSSDTLEEVEKIMKAIEEEAEKLKDVPNISIIIDFDGKISQEKLNKVTEAADRIEKKYPNINVIIALPED
B4: LC3A_free_46_2340 (protein)
chain: MTLEIEVDILADTEEKAKKAVEELVKKFKELAKKYNAKLEIEVEIEKLEDGSYYARIKATFSGLTKEQAEEIENEVADKVEEISEKYGVAAILSSEIIED
B5: LC3A_3_1614 (protein)
chain: LEELREKALKALKEAGYSEETLELFEEVVDLLEEKGYYEAAKTFLEEMLELKDLSEEIIRALLEEVLRLVKEEDLSEEELTERIKELARIARSEQEIIEL
B6: LC3A_45_1968 (protein)
chain: MAKATIDMLVPREKAEEVLEAIREAAAELEAESGGALKFDFETLDASYEATKNEEDVYLELDIYAPTKEQALDAADRLVDRVEERLGEKVAAIISVEEIP
B7: LC3A_45_1940 (protein)
chain: MWRATVDIGVPRELAEEARAAALEAMDEIEAEGGPEVRVNRAALDESYEATKDEETVLLVVEIYAPDRETALRYADRLVDYLRERLGPAVAAIISLEELP
B8: LC3A_132_327 (protein)
chain: EEEKYEKLNAEITALLDEALANVDDLEKVEKLFDETEKLLKEAEKEISPEKAAELYNKAADKYDEVADKAAEAGQEDVEALASGKSVEAEARAIRAEEKI
B9: LC3A_3_1403 (protein)
chain: FEEIKKETIEYLKKIGRSEEVIKAAKKLLDALAKKGWEKAAKTFLEELKKLKDVSDELLLDFLEEALAFVESYDGDEEEAVKKIKELAKVTLNESEIIEL
B10: LC3A_28_1272 (protein)
chain: SAIDASIAAALAAAEEAKARGEPAVITITVDGNATQEDIDKVIAAIEEIAELLKDVPDQAIVVNVDAGVAQENIDKLADAAEEIEEKYPNVTVILALDED
B11: LC3A_3_1631 (protein)
chain: MEERLEEALEELRAAGASEETLEAFRETAEALIERGFYEAAETLIEETRELAGLPSELLLDFLEDVLEYVKTNDADEEEVIEYIKETARTTRSEAEIEEL
B12: LC3A_free_39_2281 (protein)
chain: SSSMAEEARARFLALAESASPETRELLLRLLEIFKDDPEAVRRIVEALERAREEGADMLRIARRALEVAEELKERGESLEEIAEAVVETIEDEINLQPID
B13: LC3A_28_787 (protein)
chain: SELKKNADAALEEAKKAAAEGISTVITIKVTGDATQEDIDYVIKKMKEIAEVLKDIENQAIIIDVSKDVSQEHLDKLMKAAEEIEKKYPNVTVIIALEEK
B14: LC3A_28_917 (protein)
chain: MTPEEIIAAIRAAVDAAIAAGEDAHIEIEIGPNTTPEEARRIMEALEEEVARAAAAGLRVDITVDLDDVSQEVLDIVAERLERIEEKYPLASAIIALDEE
B15: LC3A_147_417 (protein)
chain: NTLKVTIDILGTLTDEEIQELVDALKAVGEKFGAKVEVKVEVEELPDGSRFVRIEITLTGVKEEDVEALKNALIDTVDEFEEKHKDKISASLISFEVIKT
B16: LC3A_127_219 (protein)
chain: MLEELLKLVREAARLADELVEDPSLDFEKALKEIEELLKEALKLAEEAGLPEEVIKDIKEALKLVKEARTADPEERKELLERASLLMDGVEIEIESLILK
B17: LC3A_free_46_2322 (protein)
chain: YKAEIDIYIDGVDKETAEKLVEELKKEFKEIAEKYGLKLEIKVKIEKNEDGTYFVEIEITLEGEDKEKLKEAVNEIIEKSEEIAEKYGASIVISYEIEEK
B18: LC3A_free_26_2157 (protein)
chain: EKFVDIAAIDEAEERLEELERLLREQGGETERLAQKAEEARELVRKETLESLEAAIELLREMEEEVREELELPEEVRERAERLLEEARRLVEEVVEIMKS
B19: LC3A_28_652 (protein)
chain: SAVDAALAAALAAARAARAAGEPAVITIRVPGDADDADIDRVLATLEEIAAILAPIPGSAIVVELDGDLADEHRDRIIDKAEELEARYPNVTVIIAEEER
B20: LC3A_28_1025 (protein)
chain: SAAEAAVAAARAEAEAQRAAGEDIFVTITVTADTTLEDARLIVEGIREIVEEHKDEKNISIIIDVERGVSQEVIDLLADGAEEIEKEYPNVNVIIALEEE
B21: LC3A_3_1369 (protein)
chain: MEEKVKEALEFLREAGKSEETIKAVEKALKALIEKGYEKAAEEFIKLLKELKDLSDEILLNFAEDVLEAVENEDLSEEELIEFIKEEARVARNEEEIEEL
B22: LC3A_28_829 (protein)
chain: SDIEARLAAFRAEVAAAVAAKESATFTVTITDKDTLEEVKTIMDAIREEAAKAADVPNQSIIIDLDGKISQEKLNLISEAADEIEEEYPNVNVIIALPED
B23: LC3A_28_950 (protein)
chain: MSIEENIEKALKEAKEAKEKNEPVVITLVLEDDPSEEAVEALIEAMEEIAELLKDIKGTTIIVDVSSKVKQEHIDAIADKGEEIEKKYPNINVIIALDED
B24: LC3A_3_1723 (protein)
chain: MEKIKAEALAVLKAQGASPETIKAAEELLKALEEKGFLEAAKTLLEELKKLKGVSSEDLLAALKDLLYKVTNEDLSEEEVIEEIKREFSVLKSAKEIEEL
B25: LC3A_3_1843 (protein)
chain: LDAAVEATLAELRAAGHSEATLAAVRETAELLKARGYDEALETFIALMRELAGLPSDLLLALAEDVKAYLETNDWSEAEVKAYIEAEARLYRNEAEIEEL
B26: LC3A_28_1215 (protein)
chain: SAIDEELEKAEKEMEEAKKKGEEALITIKIPATATVEDVKRAMERLEEIVEKVKDLPSISIIVDFEAGVSQEVIDAAAEGGERIEKKFPNVTVIIALDEE
B27: LC3A_3_1440 (protein)
chain: SEELLEEAREVLEKIGASEEAREAVLRLVERALEAGEEEGVRELIEVLKKAKKVKSEKLLEAAERALRRIEEEGVPVEEALREFIEEIRLLELEEEIEEL
B28: LC3A_28_1238 (protein)
chain: NPVEEQLERARAEVEEAVAAGEEALVELTVTKDTTQEDVDKIIEAMEEIAELAATLPALDIIINVERGVPQEHIDKLADAADEIEARYPNVTVIIALEEE
B29: LC3A_102_139 (protein)
chain: SLEEKIKKKIEELLKEFKKFLEKDKSLTEEEKKRALELVKEALEAAAKNTVTELQHGFVDIEAEDKLLEKLEELAKIGKEVAEKAKKLIEKLKKYIKELM

Molecular target: MAP1LC3A, Q9H492
Experiment: median log2 fold change of GCK-ALFA target abundance (FLAG IP / Myc IP barcode read proportion) (log2 ratio); each designed protein is fused to an ALFA-tag nanobody in HEK293 cells to bring the named protein to FLAG-tagged glucokinase (GCK); Myc marks an untargeted standard; higher = target protein stabilised (more abundant)
Settings: target protein: 3xFLAG-MCP-GCK-ALFA reporter; HEK293 landing pad (RPLP)
Summary of the method: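 HEK293 landing-pad cells received a recombined binder library fused to the ALFA nanobody and were induced with 2 μg mL^−1 doxycycline, then transfected with a plasmid encoding a FLAG-tagged target and a Myc-tagged standard. Lysates were collected after 48 h for anti-FLAG and anti-Myc immunoprecipitation, and the circular RNA barcodes were reverse transcribed, amplified and sequenced. Target abundance for each binder is the median log2 ratio of FLAG to Myc barcode read proportions. Barcodes had to reach a proportion of at least 10^−7 in both replicates, each binder needed at least 3 barcodes per replicate, a pseudocount of 10^−6 was applied, and the two replicates were pooled.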

Binder | median log2 fold change
B1 | -0.0674
B2 | 0.108
B3 | 0.145
B4 | -0.131
B5 | 0.256
B6 | -0.116
B7 | 0.162
B8 | 0.348
B9 | 0.24
B10 | 0.0796
B11 | -0.0743
B12 | 0.13
B13 | 0.115
B14 | 0.181
B15 | -0.315
B16 | 0.358
B17 | 0.337
B18 | 0.154
B19 | 0.0787
B20 | -0.176
B21 | 0.123
B22 | 0.219
B23 | 0.204
B24 | 0.206
B25 | 0.466
B26 | 0.112
B27 | 0.267
B28 | -0.0597
B29 | 0.262
